The whole screen tested about 230,000 compounds, of which about 3,600 (1.6%) were called active. Inconclusive results, whose numbers are uncertain, are shown with a selection of clear calls. Calls follow the shape of the dose curve; as a rule, active = well fitted inhibition curve with a large enough effect (not every such curve was filed as active); inconclusive = small, poorly fitted or top-dose-only effect, or another doubt; inactive = no such curve, though single readings can be large or run the other way. A potency beside an inconclusive call is a rough fit, not a confirmed value.
Biological target: Lysine-specific demethylase 4E (Homo sapiens) (UniProt B2RXH2)
Experiment: qHTS Assay for Inhibitors of Human Jumonji Domain Containing 2E (JMJD2E)
Settings: JMJD2E catalytic domain, FDH-coupled NADH fluorescence (FDH is formaldehyde dehydrogenase); series mostly up to 57.1 µM; activity change, negative = inhibition: at the top concentration
Text: Assay Provider: Structural Genomics Consortium [SGC] Screening Center PI: Austin, C.P. Screening Center: NIH Chemical Genomics Center [NCGC] The fine interplay among methylation states of several lysine residues on the tails of histone proteins is a major determinant of the transcriptional state of the associated DNA coding regions and is commonly referred to as the histone code. Histone lysine demethylases catalyze the removal of methyl groups from methylated lysine sidechains on histones H3 and H4, thus antagonizing the reactions catalyzed by histone lysine methyltransferases. […] In search for novel inhibitors of JMJD2E demethylase, a member of the largest set of histone demethylases belonging to the Fe(II) and 2-oxoglutarate oxygenase (2OG) superfamily, we performed a quantitative high-throughput screen (Inglese 2006) by using an assay which utilizes a trimethylated peptide substrate corresponding to a fragment of histone H3 (sequence ARKme3STGGK) with detection of the formaldehyde co-product in real time by a formaldehyde dehydrogenase (FDH) coupled reaction. FDH catalyzes oxidation of formaldehyde to formic acid with the concomitant reduction of the non-fluorescent beta-nicotinamide adenine dinucleotide hydrate (NAD+) cofactor to the fluorescent NADH co-product. References: Inglese, J., Auld, D., Jadhav, A., Johnson, R., Simeonov, A., Yasgar, A., Zheng, W. and Austin, C. Proc Natl Acad Sci USA 2006, 103, 11473-11478. N. R. Rose, S. S. Ng, J. Mecinovic, B. M. Lienard, S. H. Bello, Z. Sun, M. A. McDonough, U. Oppermann and C. J. Schofield, J Med Chem, 2008, 51, 7053-7056. Sakurai, M., Rose, N., Schultz, L., Quinn, A., Jadhav, A., Ng, S., Oppermann, U., Schofield, C.J. and Simeonov, A. Mol BioSystems 2009, in press. S. Michael, D. Auld, C. Klumpp, A. Jadhav, W. Zheng, N. Thorne, C. Austin, J. Inglese and A. Simeonov, Assay Drug Dev Technol, 2008, 6, 637-657.
Reagents and Controls: Ferrous ammonium sulfate, (+)-sodium L-ascorbate, beta-nicotinamide adenine dinucleotide hydrate (NAD+), Tween-20, formaldehyde dehydrogenase from P. putida (FDH), and disodium 2-oxoglutarate were from Sigma (St. Louis, MO). Black solid-bottom 384-well or 1,536-well assay plates were from Greiner Bio-One (Monroe, NC). Enzyme was supplied by Prof. Udo Oppermann, SGC-Oxford. The catalytic domain of human JMJD2E (residues 1-337) was produced as an N-terminally His6-tagged protein in E. coli, and purified by Ni-affinity chromatography and size-exclusion chromatography, and stored in HEPES 50 mM/ NaCl 500 mM pH 7.5, as reported in Rose 2008. The trimethylated histone peptide substrate ARK(me3)STGGK was synthesized and HPLC-purified by the Tufts University Core Facility (Boston, MA). Substrate solution (Sakurai 2009) contained 50 uM ARK(me3)STGGK, 0.00025 U/uL FDH, 50 uM 2-oxoglutarate, 250 uM NAD+, 1 mM ascorbate, and 10 uM ferrous ammonium sulfate. Controls and plate map: Buffer (150 mM HEPES pH 7.5 containing 0.01% Tween-20) in columns 3 and 4 as negative control (no enzyme) and 100 nM JMJD2E final concentration in columns 1,2, and 5-48. Assay Steps: Enzyme and buffer solutions (3 uL) were dispensed into a 1,536-well Greiner black solid-bottom assay plate. The library compounds (23 nL) were transferred using a Kalypsys pintool equipped with 1,536-pin array. The plate was incubated at room temperature (15 min), and then a 1 uL aliquot of substrate solution was added to initiate the reaction. The plate was transferred to ViewLux imager where an initial reading using standard UV optics (Ex 340 nm, Em 450 nm) was obtained. The plate was then removed from the reader, incubated for 30 minutes at room temperature, and returned to the reader for a second fluorescence reading. A fully automated robotic screening system (Kalypsys Inc, San diego, CA) was used to perform the above steps as described previously (Michael 2008). […]
Also: nearly all actives have a fitted effect of over 50% in size.
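For activity change, negative = inhibition in this document: 0% = wells with enzyme and -100% = buffer wells without enzyme.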
Potency is read from the fitted curve at half-maximal effect; tags tell the direction and shape of the fitted curve.

Chain of UniProt B2RXH2 (B2RXH2 whole entry, looked up, the tested form may be a part): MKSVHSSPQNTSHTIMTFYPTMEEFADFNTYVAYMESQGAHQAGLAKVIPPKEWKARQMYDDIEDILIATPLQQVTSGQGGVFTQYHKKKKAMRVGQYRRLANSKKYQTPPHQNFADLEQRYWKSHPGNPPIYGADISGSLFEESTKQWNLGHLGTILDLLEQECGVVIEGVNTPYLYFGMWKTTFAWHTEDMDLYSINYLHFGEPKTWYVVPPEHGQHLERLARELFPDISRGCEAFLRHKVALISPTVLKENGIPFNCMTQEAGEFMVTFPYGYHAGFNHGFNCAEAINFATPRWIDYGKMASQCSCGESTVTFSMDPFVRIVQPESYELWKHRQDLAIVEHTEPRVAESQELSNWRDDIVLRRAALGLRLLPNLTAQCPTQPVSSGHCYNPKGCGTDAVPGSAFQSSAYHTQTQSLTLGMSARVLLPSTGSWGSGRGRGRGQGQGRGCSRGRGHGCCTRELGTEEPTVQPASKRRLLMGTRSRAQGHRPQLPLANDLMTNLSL

Structure (SMILES)	Potency	activity change, negative = inhibition
CCN(CC)CCCNC(=O)Cc1c(C(=O)O)n(C)c2ccccc12	inconclusive: 25.1 µM [inhibitor, single point]	
COC(=O)C1=C(C)Nc2ncnn2C1c1ccc(OC(=O)c2ccccc2)cc1 (stereo not given)	inconclusive: 39.8 µM [inhibitor, single point]	
COc1ccc(C(=O)CSc2ccc(-c3ccc(C)cc3)nn2)cc1		inactive: -16%
O=C(CSc1ncn[nH]1)NC1CCCc2ccccc21 (stereo not given)	inconclusive: 2.51 µM [inhibitor, partial curve]	
O=c1[nH]c(C2CCCN(S(=O)(=O)c3ccccc3)C2)nc2c1nnn2Cc1ccccc1 (stereo not given)		inactive: -7.7%
O=[N+]([O-])c1ccc(N2CCCC2)cc1N1CCCC1		inactive: -1.33%
N#Cc1ccc(/C=N/NC(=O)c2cc(-c3cccs3)nc3ccccc23)cc1	inconclusive: 28.2 µM [inhibitor, partial curve]	
O=C(O)CSc1cnc2ccccc2n1	inconclusive: 35.5 µM [inhibitor, single point]	
O=C1c2cccc3cccc(c23)C(=O)N1CC1CCN(S(=O)(=O)c2ccc(F)cc2)CC1	inconclusive: 22.4 µM [inhibitor, partial curve]	
O=C(c1ccco1)N1CCN(C(=O)c2cnn3c2NC(c2cccs2)CC3C(F)(F)F)CC1 (stereo not given)		inactive: -2.11%
COC(=O)c1c(C)nc2nonc2c1N	inconclusive: 0.794 µM [inhibitor, single point]	
O=C(CC1Nc2ccccc2NC1=O)Nc1ccc2c(c1)OCO2 (stereo not given)	inconclusive: 35.5 µM [inhibitor, single point]	
Cc1cccc2cc(C#N)c(NCCNS(=O)(=O)c3ccc4c(c3)OCCO4)nc12	inconclusive: 28.2 µM [inhibitor, partial curve]	
O=C(CN1CCCCCCC1)Nc1cccc(Cl)c1Cl		inactive: 11.9%
CCOC(=O)c1ccc(NC(=O)CSc2nc3sc(C(=O)O)c(C)c3c(=O)[nH]2)cc1		inactive: -8.06%
CCOC(=O)c1c(O)c2cc(Cl)ccc2n(CC)c1=O		inactive: 16.5%
Fc1cnc(N/N=C/c2ccc(-c3ccc(Br)cc3)o2)nc1N1CCOCC1	inconclusive: 28.2 µM [inhibitor, partial curve]	
O=C(COC(=O)c1ccccc1O)Nc1ccc(S(=O)(=O)N2CCCCC2)cc1	inconclusive: 39.8 µM [inhibitor, single point]	
CCN1CCN(CCNC(=O)CSCc2nc(-c3ccc(OC)c(OC)c3)oc2C)CC1	inconclusive: 31.6 µM [inhibitor, single point]	
COc1ccc(-c2c3c(cc(C)[n+]2[O-])oc2ccc(OC)cc23)cc1	inconclusive: 35.5 µM [inhibitor, single point]	

From PubChem BioAssay AID2147 (National Center for Advancing Translational Sciences (NCATS), 2009)
